Laboratory results from the supplement of paper PMC4604168 (melanoma cell lines).
Some of the results follow. Repeats are few or missing, and single values can be far off.

What was measured:
Assay in all cases: cell count relative to DMSO control; melanoma cells; higher = more viable cells
Settings in all cases: library dose: standard library concentration; 72 h
G361 = tested on: G361
IPC-298 = tested on: IPC-298
IST-MEL1 = tested on: IST-MEL1
LB2518-MEL = tested on: LB2518-MEL
LOXIMVI = tested on: LOXIMVI
MEL-HO = tested on: MEL-HO
MZ2-MEL = tested on: MZ2-MEL
MeWo = tested on: MeWo
RPMI7951 = tested on: RPMI7951
RVH-421 = tested on: RVH-421
SkMel28 = tested on: SkMel28
SkMel2 = tested on: SkMel2
SkMel30 = tested on: SkMel30
SkMel5 = tested on: SkMel5
UACC257 = tested on: UACC257
UACC62 = tested on: UACC62
WM115 = tested on: WM115
WM1716 = tested on: WM1716
WM3526 = tested on: WM3526
WM1745 = tested on: WM1745
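Further: cells treated in 1,536-well plates, then fixed and DAPI-stained, with nuclei counted from automated high-throughput microscope images.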

In the case of O=c1[nH]nc(Sc2ncc([N+](=O)[O-])s2)n1-c1ccc2c(c1)OCCO2 + COc1cc(N2CCC(N3CCN(C)CC3)CC2)ccc1Nc1ncc(Cl)c(Nc2ccccc2S(=O)(=O)C(C)C)n1 [NVP-TAE684] (first compound 1 µM, partner dose 0.4 µM), the cell count (G361) is reported as 98.7%, the cell count (IPC-298) is reported as 95.7% and the cell count (IST-MEL1) is reported as 91%. It also gave a cell count (LB2518-MEL) of 83.7%, a cell count (LOXIMVI) of 87.3% and a cell count (MEL-HO) of 77.4%. It also gave a cell count (MZ2-MEL) of 102%, a cell count (MeWo) of 82% and a cell count (RPMI7951) of 80.5%. It also gave a cell count (RVH-421) of 89.2%, a cell count (SkMel28) of 97.9% and a cell count (SkMel2) of 79%. The cell count (SkMel30) was 141%, the cell count (SkMel5) was 81.6% and the cell count (UACC257) was 102%. The cell count (UACC62) was 85.1%, the cell count (WM115) was 92.5% and the cell count (WM1716) was 74.5%. It also gave a cell count (WM3526) of 83.3%.

With O=c1[nH]nc(Sc2ncc([N+](=O)[O-])s2)n1-c1ccc2c(c1)OCCO2 + CC(=O)O[C@@]12CO[C@@H]1C[C@H](O)[C@@]1(C)C(=O)[C@H](O)C3=C(C)[C@@H](OC(=O)[C@H](O)[C@@H](NC(=O)OC(C)(C)C)c4ccccc4)C[C@@](O)([C@@H](OC(=O)c4ccccc4)[C@H]21)C3(C)C [Docetaxel] (first compound 1 µM, partner dose 0.0005 µM) the cell count (G361) was 14.5%, the cell count (IPC-298) was 36.7% and the cell count (IST-MEL1) was 33.9%. For the same compound, the cell count (LB2518-MEL) was 43.2%, the cell count (LOXIMVI) was 74.9% and the cell count (MEL-HO) was 37.1%. The cell count (MZ2-MEL) was 33.2%, the cell count (MeWo) was 22.8% and the cell count (RPMI7951) was 27.5%. For the same compound, the cell count (RVH-421) was 46%, the cell count (SkMel28) was 16.9% and the cell count (SkMel2) was 13.5%. For the same compound, the cell count (SkMel30) was 53.1%, the cell count (SkMel5) was 42.5% and the cell count (UACC257) was 67.6%. It also gave a cell count (UACC62) of 37.4%, a cell count (WM115) of 41.6% and a cell count (WM1716) of 48.4%. The cell count (WM1745) was 44% and the cell count (WM3526) was 44%.

O=c1[nH]nc(Sc2ncc([N+](=O)[O-])s2)n1-c1ccc2c(c1)OCCO2 + CCCCCCCCCCCC1=C(O)C(=O)C=C(O)C1=O [Embelin] (first compound 1 µM, partner dose 6 µM) showed a cell count (G361) of 60.6%, a cell count (IPC-298) of 67.8% and a cell count (IST-MEL1) of 56.3%. The cell count (LB2518-MEL) was 86.2%, the cell count (LOXIMVI) was 75.8% and the cell count (MEL-HO) was 62.4%. For the same compound, the cell count (MZ2-MEL) was 92%, the cell count (MeWo) was 92.2% and the cell count (RPMI7951) was 77.4%. For the same compound, the cell count (RVH-421) was 47.2%, the cell count (SkMel28) was 84.4% and the cell count (SkMel2) was 76.8%. The cell count (SkMel30) was 87.3%, the cell count (SkMel5) was 91.4% and the cell count (UACC257) was 73.5%. The cell count (UACC62) was 86.6%, the cell count (WM115) was 100% and the cell count (WM1716) was 72.6%. The cell count (WM3526) was 84%.

With O=c1[nH]nc(Sc2ncc([N+](=O)[O-])s2)n1-c1ccc2c(c1)OCCO2 + NC1(c2ccc(-c3nc4ccn5c(=O)[nH]nc5c4cc3-c3ccccc3)cc2)CCC1 [MK2206] (first compound 1 µM, partner dose 2 µM) the cell count (G361) was 91.1%, the cell count (IPC-298) was 85.5% and the cell count (IST-MEL1) was 88.4%. For the same compound, the cell count (LB2518-MEL) was 73.9%, the cell count (LOXIMVI) was 39.1% and the cell count (MEL-HO) was 70.6%. It also gave a cell count (MZ2-MEL) of 102%, a cell count (MeWo) of 88% and a cell count (RPMI7951) of 100%. For the same compound, the cell count (RVH-421) was 74.7%, the cell count (SkMel28) was 90.5% and the cell count (SkMel2) was 81.3%. For the same compound, the cell count (SkMel30) was 87.2%, the cell count (SkMel5) was 71.7% and the cell count (UACC257) was 92%. It also gave a cell count (UACC62) of 69.8%, a cell count (WM115) of 76.7% and a cell count (WM1716) of 86.1%. The cell count (WM1745) was 84.3% and the cell count (WM3526) was 77.8%.

Work on O=c1[nH]nc(Sc2ncc([N+](=O)[O-])s2)n1-c1ccc2c(c1)OCCO2 + c1cc(-c2cnn3cc(-c4ccc(OCCN5CCCCC5)cc4)cnc23)ccn1 [Dorsomorphin] (first compound 1 µM, partner dose 2 µM) yielded a cell count (G361) of 53.2%, a cell count (IPC-298) of 91% and a cell count (IST-MEL1) of 77.9%. For the same compound, the cell count (LB2518-MEL) was 66.2%, the cell count (LOXIMVI) was 104% and the cell count (MEL-HO) was 81.9%. The cell count (MZ2-MEL) was 72.3%, the cell count (MeWo) was 74.1% and the cell count (RPMI7951) was 67%. For the same compound, the cell count (RVH-421) was 94.9%, the cell count (SkMel28) was 66.6% and the cell count (SkMel2) was 83.1%. The cell count (SkMel30) was 98.1%, the cell count (SkMel5) was 70.3% and the cell count (UACC257) was 76.6%. The cell count (UACC62) was 62.1%, the cell count (WM115) was 75.4% and the cell count (WM1716) was 74.9%. For the same compound, the cell count (WM3526) was 88.5%.

With O=c1[nH]nc(Sc2ncc([N+](=O)[O-])s2)n1-c1ccc2c(c1)OCCO2 + COc1ccc(COc2ccc(Cc3cnc(N)nc3N)cc2OC)cc1 [GW2580] (first compound 1 µM, partner dose 5 µM) the cell count (G361) was 111%, the cell count (IPC-298) was 108% and the cell count (IST-MEL1) was 99.7%. For the same compound, the cell count (LB2518-MEL) was 103%, the cell count (LOXIMVI) was 91.1% and the cell count (MEL-HO) was 104%. It also gave a cell count (MZ2-MEL) of 105%, a cell count (MeWo) of 96.2% and a cell count (RPMI7951) of 105%. For the same compound, the cell count (RVH-421) was 86.8%, the cell count (SkMel28) was 141% and the cell count (SkMel2) was 114%. For the same compound, the cell count (SkMel30) was 98.1%, the cell count (SkMel5) was 93.9% and the cell count (UACC257) was 74.1%. For the same compound, the cell count (UACC62) was 84.2%, the cell count (WM115) was 111% and the cell count (WM1716) was 118%. For the same compound, the cell count (WM3526) was 104%.

Compound CC1(C)NC(=O)N(c2ccc([N+](=O)[O-])c(C(F)(F)F)c2)C1=O [nilutamide] + O=C(O)C(=O)Nc1sc2c(c1C(=O)O)CCNC2 [TCS401] (first compound 5 µM, partner dose 8.33333 µM) has a cell count (G361) of 89.7%, a cell count (IPC-298) of 96.7% and a cell count (IST-MEL1) of 91%. For the same compound, the cell count (LB2518-MEL) was 104%, the cell count (LOXIMVI) was 104% and the cell count (MEL-HO) was 104%. The cell count (MZ2-MEL) was 99.6%, the cell count (MeWo) was 112% and the cell count (RPMI7951) was 118%. The cell count (RVH-421) was 96.2%, the cell count (SkMel28) was 73.5% and the cell count (SkMel2) was 96.9%. It also gave a cell count (SkMel30) of 103%, a cell count (SkMel5) of 95.2% and a cell count (UACC257) of 87.8%. It also gave a cell count (UACC62) of 115%, a cell count (WM115) of 91.9% and a cell count (WM1716) of 99.8%. It also gave a cell count (WM1745) of 93.4% and a cell count (WM3526) of 97.3%.

Compound O=c1[nH]nc(Sc2ncc([N+](=O)[O-])s2)n1-c1ccc2c(c1)OCCO2 + O=C1NC(=O)/C(=C/c2ccc(-c3ccc(F)cc3O)o2)S1 [AS252424] (first compound 1 µM, partner dose 5 µM) has a cell count (G361) of 100%, a cell count (IPC-298) of 102% and a cell count (IST-MEL1) of 106%. For the same compound, the cell count (LB2518-MEL) was 120%, the cell count (LOXIMVI) was 111% and the cell count (MEL-HO) was 96.3%. It also gave a cell count (MZ2-MEL) of 107%, a cell count (MeWo) of 87.6% and a cell count (RPMI7951) of 113%. For the same compound, the cell count (RVH-421) was 108%, the cell count (SkMel28) was 110% and the cell count (SkMel2) was 124%. It also gave a cell count (SkMel30) of 96.5%, a cell count (SkMel5) of 82.3% and a cell count (UACC257) of 112%. For the same compound, the cell count (UACC62) was 122%, the cell count (WM115) was 116% and the cell count (WM1716) was 102%. For the same compound, the cell count (WM3526) was 96.6%.

O=c1[nH]nc(Sc2ncc([N+](=O)[O-])s2)n1-c1ccc2c(c1)OCCO2 + N#Cc1c(O)c2c(-c3ccc(-c4ccccc4O)cc3)csc2[nH]c1=O [A769662] (first compound 1 µM, partner dose 10 µM) gave a cell count (G361) of 118%, a cell count (IPC-298) of 71.9% and a cell count (IST-MEL1) of 97.7%. It also gave a cell count (LB2518-MEL) of 105%, a cell count (LOXIMVI) of 91.8% and a cell count (MEL-HO) of 93.3%. The cell count (MZ2-MEL) was 103%, the cell count (MeWo) was 97.4% and the cell count (RPMI7951) was 90.9%. The cell count (RVH-421) was 93.3%, the cell count (SkMel28) was 105% and the cell count (SkMel2) was 107%. It also gave a cell count (SkMel30) of 91.1%, a cell count (SkMel5) of 81.2% and a cell count (UACC257) of 103%. It also gave a cell count (UACC62) of 105%, a cell count (WM115) of 82.3% and a cell count (WM1716) of 101%. For the same compound, the cell count (WM3526) was 107%.

Compound O=c1[nH]nc(Sc2ncc([N+](=O)[O-])s2)n1-c1ccc2c(c1)OCCO2 + COC(=O)c1sccc1S(=O)(=O)Nc1ccc(Nc2ccccc2)cc1OC [GSK0660] (first compound 1 µM, partner dose 5 µM) has a cell count (G361) of 97.4%, a cell count (IPC-298) of 80.5% and a cell count (IST-MEL1) of 116%. For the same compound, the cell count (LB2518-MEL) was 118%, the cell count (LOXIMVI) was 93.9% and the cell count (MEL-HO) was 110%. The cell count (MZ2-MEL) was 79.2%, the cell count (MeWo) was 95.2% and the cell count (RPMI7951) was 103%. It also gave a cell count (RVH-421) of 100%, a cell count (SkMel28) of 101% and a cell count (SkMel2) of 97%. The cell count (SkMel30) was 88%, the cell count (SkMel5) was 92.5% and the cell count (UACC257) was 100%. For the same compound, the cell count (UACC62) was 68.5%, the cell count (WM115) was 94.8% and the cell count (WM1716) was 86.9%. For the same compound, the cell count (WM3526) was 100%.
